Data from patent US20210324039A1 (REMEGEN, published 2021).

T1: rhVEGF165 (human, UniProt P15692-4 27-191)
T1 sequence (looked up): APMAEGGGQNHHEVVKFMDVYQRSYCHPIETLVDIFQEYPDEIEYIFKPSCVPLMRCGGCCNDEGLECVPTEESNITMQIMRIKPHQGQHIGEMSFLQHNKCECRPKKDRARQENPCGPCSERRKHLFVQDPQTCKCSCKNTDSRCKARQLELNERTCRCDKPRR


Tests used:
rhVEGF165 [1] = target: T1, rhVEGF165; assay: cell-based or functional assay
rhFGF2 [2] = target: T2, rhFGF2 (human, UniProt P09038 part only, limits assumed); assay: cell-based or functional assay
rhFGF2 [3] = target: T2, rhFGF2; assay: BLI (ForteBio Octet), fusion protein loaded on the probe at 50 nM, rhFGF 50-400 nM in solution, N=3
Description: (§1) VF28 and RC28-05 were tested for the affinity using ForteBio Octet (PALL). PBS (pH 7.4) was added as a balanced solution to each well of column 1 of the detection plate A-E, and the probe was soaked and activated for 10 min; RC28-05 and VF28 were diluted respectively to a concentration of 50 nM with PBS and added to column 2 of rows A-E of the 96-well assay plate with the program set to Loading for 300 s; PBS was added as a balanced solution to each well of column 3 of rows A-E of the detection plate with the program set to Baseline for 180 s; rhVEGF (R&D) and rhFGF (R&D) were diluted respectively to a concentration of 500 nM and 400 nM using PBS as the diluent, and then serially diluted at 1:2 for three gradients (a total of four gradients) to a concentration of 62.5 nM and 50 nM. The serially diluted samples were added to column 4 of rows A-D of the 96-well plate while the dilution was added to column 4 of row E as a negative control, with the program set to Association for 600 s; PBS was added as the dissociation solution to each well in column 5 of rows A-E with the program set to Dissociation for 1800 s; 10 mM glycine (pH 1.5) and PBS were added as the regeneration solution and the neutralization solution in columns 6 and 7 of rows A-E, respectively, with the programs respectively set to Regeneration and Neutralization for 15 s each, repeating for 5 times. A total of 3 cycles were tested. Data was analysed using Data analysis 7.0 software. The equilibrium constant (KD) value was calculated with the background subtracted using the corresponding unbound rhVEGF/rhFGF sensor as a control.

rhVEGF165 [4] = target: T1, rhVEGF165; assay: BLI (ForteBio Octet), fusion protein loaded on the probe at 50 nM, rhVEGF 62.5-500 nM in solution, N=3
Description: as §1

[5] = target: VEGF and FGF (the VEGF end and the FGF end; one value from the 'single system analysis', target not stated separately); assay: ELISA, single system analysis, stock solution -80 C, 6 months
[6] = target: VEGF and FGF (the VEGF end and the FGF end; one value from the 'single system analysis', target not stated separately); assay: ELISA, single system analysis, stock solution -80 C, 9 months
[7] = target: VEGF and FGF (the VEGF end and the FGF end; one value from the 'single system analysis', target not stated separately); assay: binding activity analysis, single system analysis, finished product 5 C, 3 months
[8] = target: VEGF and FGF (the VEGF end and the FGF end; one value from the 'single system analysis', target not stated separately); assay: binding activity analysis, single system analysis, finished product 5 C, 6 months
[9] = target: VEGF and FGF (the VEGF end and the FGF end; one value from the 'single system analysis', target not stated separately); assay: binding activity analysis, single system analysis, finished product 5 C, 9 months
[10] = target: VEGF and FGF (the VEGF end and the FGF end; one value from the 'single system analysis', target not stated separately); assay: binding activity analysis, single system analysis, finished product 25 C, 10 days
[11] = target: VEGF and FGF (the VEGF end and the FGF end; one value from the 'single system analysis', target not stated separately); assay: binding activity analysis, single system analysis, finished product 25 C, 20 days
[12] = target: VEGF and FGF (the VEGF end and the FGF end; one value from the 'single system analysis', target not stated separately); assay: binding activity analysis, single system analysis, finished product 25 C, 30 days
[13] = target: VEGF and FGF (the VEGF end and the FGF end; one value from the 'single system analysis', target not stated separately); assay: binding activity analysis, single system analysis, finished product 5 C, 12 months

T2 sequence (P09038 143-288 limits assumed): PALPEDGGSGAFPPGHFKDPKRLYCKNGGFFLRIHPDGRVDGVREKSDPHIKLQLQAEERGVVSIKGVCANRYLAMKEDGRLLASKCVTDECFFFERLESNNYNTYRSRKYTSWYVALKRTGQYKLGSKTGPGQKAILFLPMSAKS

IC50 of inhibition of HUVEC cell proliferation stimulated by VEGF165 (CCK-8, 72 h) (rhVEGF165 [1])	IC50 of inhibition of HUVEC cell proliferation stimulated by bFGF (CCK-8, 72 h) (rhFGF2 [2])	Kd (rhFGF2 [3])	koff (rhFGF2 [3])	kon (rhFGF2 [3])	Kd (rhVEGF165 [4])	koff (rhVEGF165 [4])	kon (rhVEGF165 [4])	Relative binding activity (%) [5]	Relative binding activity (%) [6]	Relative binding activity (%) [7]	Relative binding activity (%) [8]	Relative binding activity (%) [9]	Relative binding activity (%) [10]	Relative binding activity (%) [11]	Relative binding activity (%) [12]	Relative binding activity (%) [13]	Binder
0.48 nM	3.2 nM	5.24 nM	9.78e-05 s⁻¹	19000 M⁻¹ s⁻¹	0.251 nM	6.68e-05 s⁻¹	276000 M⁻¹ s⁻¹	–	–	–	–	–	–	–	–	–	VF28 (28# fusion protein of CN 201110131029.X) (Fc fusion, Earlier VEGFR-FGFR-Fc fusion protein, used as the comparator) GRPFVEMYSEIPEIIHMTEGRELVIPCRVTSPNITVTLKKFPLDTLIPDGKRIIWDSRKGFIISNATYKEIGLLTCEATVNGHLYKTNYLTHRQTNTIIDVVLSPSHGIELSVGEKLVLNCTARTELNVGIDFNWEYPSSKHQHKKLVNRDLKTQSGSEMKKFLSTLTIDGVTRSDQGLYTCAASSGLMTKKNSTFVRVHEKPNPVAPYWTSPEKMEKKLHAVPAAKTVKFKCPSSGTPNPTLRWLKNGKEFKPDHRIGGYKVRYATWSIIMDSVVPSDKGNYTCIVENEYGSINHTYQLDVVERSPHRPILQAGLPANKTVALGSNVEFMCKVYSDPQPHIQWLKHIEVNGSKIGPDNLPYVQILKTAGVNTTDKEMEVLHLRNVSFEDAGEYTCLAGNSIGLSHHSAWLTVLEALEERPAVMTSPLYLE[human IgG1 Fc omitted]
0.43 nM	1.5 nM	3.28 nM	7.96e-05 s⁻¹	26600 M⁻¹ s⁻¹	–	5.65e-05 s⁻¹	230000 M⁻¹ s⁻¹	99.6% and 102%	115% and 105% and 104%	116% and 107%	108% and 102% and 98.5%	105% and 112% and 110%	109% and 108%	104% and 120% and 119%	95.7% and 101% and 113%	119% and 110% and 111%	RC28-05 fusion protein (Fc fusion, Expressed in CHO cells) GRPFVEMYSEIPEIIHMTEGRELVIPCRVTSPNITVTLKKFPLDTLIPDGKRIIWDSRKGFIISNATYKEIGLLTCEATVNGHLYKTNYLTHRQTNTIIDVVLSPSHGIELSVGEKLVLNCTARTELNVGIDFNWEYPSSKHQHKKLVNRDLKTQSGSEMKKFLSTLTIDGVTRSDQGLYTCAASSGLMTKKNSTFVRVHEKPVAPYWTSPEKMEKKLHAVPAAKTVKFKCPSSGTPNPTLRWLKNGKEFKPDHRIGGYKVRYATWSIIMDSVVPSDKGNYTCIVENEYGSINHTYQLDVVERSPHRPILQAGLPANKTVALGSNVEFMCKVYSDPQPHIQWLKHIEVNGSKIGPDNLPYVQILKTAGVNTTDKEMEVLHLRNVSFEDAGEYTCLAGNSIGLSHHSAWLTVLEA[human IgG1 Fc omitted]

Several values for one entry are separate records, joined by “and”; a condition that tells them apart may be missing. Identical values can stand only once.
